Source: the supplement of paper PMC11417369
Some of the results follow.

The sequences below were run on PfAP2-HC AP2 domain (GST-tagged) (assay: gcPBM binding intensity (ln(normalized median fluorescence intensity)); higher = stronger DNA binding).
Summary of the method: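 An Agilent 4 × 180k array of primer-extended double-stranded 36-bp intergenic genomic probes, with negative controls, was incubated for 1 h with GST-tagged P. falciparum DNA-binding domains expressed in E. coli. Alexa488 anti-GST antibody detected bound protein, scanned at 488 nm. Binding intensity is the highest Masliner-normalised natural-log median intensity across replicate spots of either probe orientation.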

Point of comparison: “AACATACGACAATACGCACACATATAAGTACATATT [CACACA_site8584]”, “gcPBM binding intensity (ln)” value 10.5. Against it:
- AAATATTACATACACGCACACATTAAAATATTTAAA [CACACA_site5440] — lower, 10.1
- TGTAGTCTGGAGAAGAGTACACAGTATCTGGTAGCT [XGTACX_site2036] — lower, 9.72
- TTAAAAAATCACAACACACACACACGCAAAAAAAAA [CACACA_site6793] — higher, 10.8
- AAAAATAACATATAAACACACATATAGATTTATATA [CACACA_site7738] — lower, 9.83
- ATATAGAATGTTTACACACGCAATAAATATATATAT [CACACA_site217] — lower, 9.85
- GCGTATCATTTTAAAACACACAGGATTTTATAAGTA [CACACA_site1225] — lower, 9.68
- ATGGTATAAAAAAATACACACTTATTTATATTCTTA [CACACA_site6370] — lower, 9.65
- AATTTTTAGAAGAACACACACATATATATTATGACC [CACACA_site246] — lower, 10.3
- ATTATGCACAGACACACACACACACTACTAAAAAAT [CACACA_site7252] — higher, 10.7
- ATAGGAGAAAAAGAATGTACGTATGATGTTGAAAAT [XGTACX_site7779] — lower, 9.96
- AAAAAAAATAAAAATATATATATATATATATAAATA [GTGCAC_negctrl_site676] — lower, 9.68
- AAGCATTTTTTTTAAAGCCTGTTCATCATCCTTACC [CACACA_negctrl_site129] — lower, 9.44
- AAATAAATAAATAGAGTGCATATATATATATATTTT — lower, 9.75
- CTTTTTATTTATCATACACACACAGAAAAAAAAAAA [CACACA_site7935] — lower, 10.1
- ATATACAAAGGATTAACACACATATTATTATAGATA [CACACA_site6966] — lower, 9.87
- TCTATTAATTAATATACACACATTATATATATATAT [CACACA_site8815] — lower, 9.99
- AATATATATATATATATATTTTTGTTAGAATATGGA [CACACA_negctrl_site212] — lower, 9.53
- AAATAACTTTTAAATACACACGTAAAATATATTGTG [CACACA_site9085] — lower, 9.73
- ACCGTGGGAGGACACACACACACACGCACATATATA [CACACA_site6289] — higher, 11.1
- TACATTATAAATATTACACACTTTATAAAATAATAA [CACACA_site6096] — lower, 9.58
- TCCTTTTTTTTTTATGCACACACAATTATACATTCC [CACACA_site9287] — lower, 10.3
- TTAACCACTAAAAGTACACACATATATACATATATA [CACACA_site3912] — lower, 9.81
- ATAATATTTTTATGTACACACCTTAATCCTTAAAAG [CACACA_site5881] — lower, 9.66
- ATATAAGTACGGCATGCATGCACATTTTTTTATTCC [TGCATGCA_site101] — lower, 10
- TTATAAATTCAATGTACTACACAAAATGAATTTAAT [XGTACX_site6683] — lower, 9.51
- TACAGACATAGACACACACACACGCATAAAAAAAAA [CACACA_site6820] — higher, 11.4
- TTCCTATAAAAAAACACACACATATAAATATAAATA [CACACA_site7154] — lower, 10.4
- AAAAAAAAAAAAAACACACACACACGCAAATACATA [CACACA_site6474] — higher, 11.4
- TCCTTAAATATAAAGGTGCTATGCAGACCTTATGTT [GTGCAC_site9472] — lower, 9.31
- TGGCTTATTCAGAAATGTACACATATAAATATATAT [XGTACX_site3765] — lower, 9.66
- AAAATAATATATGTATGTACACAATTATTTATAAGT [XGTACX_site7267] — lower, 9.88
- TTTCTTTTAATTATCCGTACACAAACAATAAAATAA [XGTACX_site7841] — lower, 9.26
- TGAATAAATAAGATACGTACACACATATACAAAATA [XGTACX_site7758] — lower, 10.1
- TGTGCTCGCTATTACACACTCATTGGGATAAAATTG [CACACA_site2029] — lower, 9.6
- TACATAAACATTTATACACACATTATATATACATAT [CACACA_site8028] — lower, 10.1
- AATGTATAAAAGTTTTGTACATATTCTCACACATAT [XGTACX_site965] — lower, 9.89
- ATATACCATATGCATGGTACACATTTACAACAAAAA [XGTACX_site3142] — lower, 9.57
- TAGTTGTGAGTTACATGTACATGTATTTATTTTTTA [XGTACX_site7088] — lower, 10
- GATAACAATATGTGTACACATTTATATCTCCACATA [CACACA_site5442] — lower, 9.84
- TTTATTAAATAAAGCACACACAACAACTTTTCACAA [CACACA_site4132] — lower, 10.1
- ATAACGTAAACAATGTGGACACATACATAAATATAT [XGTACX_site707] — lower, 9.94
- TTACAAAACCGATGTTGTACATTCAATAGATAATGT [XGTACX_site3806] — lower, 9.58
- GTCATCATAATCTATTGTACAAAAATTTATACAGAT [XGTACX_site1059] — lower, 9.63
- TACATTAAACGAATAGTGCAAGAAGTATTCGTATAA [GTGCAC_site9939] — lower, 10.1
- TATAAAAATAAGTATACACACAAAATGCGTAACTTT [CACACA_site1295] — lower, 9.71
- ATAAATACATTAAAATGTACATAAAAATATTACTGG [XGTACX_site1484] — lower, 9.73
- TATAACAAGTAATGGTGTACATTATATTATGTAATA [XGTACX_site2761] — lower, 9.73
- CATATGCGTCTTGCCTTGCACACTTTTATGAAAAAA [CACACA_site2055] — lower, 9.75
- TAATACTTAAAATGTTGTACATAATAATTTTATATT [XGTACX_site5403] — lower, 9.51
- TATATATATATATATACATGCATTTCTCATGTACAT [TGCATGCA_site621] — lower, 9.82
- TTTTATATCTACCTTTGTACATATTTATTTTTTTTA [XGTACX_site7872] — lower, 9.94
- TTCATAAAAAATGTAGTGCATTGAATAAAATTACAT [GTGCAC_site9393] — lower, 9.59
- TTAATTTTGGTAAATGCATGTAATTAAAAATAAAAA [TGCATGCA_site234] — lower, 9.45
- ATATTGAAATTAAAAAAATATATGAACAAATGATGA [CACACA_negctrl_site602] — lower, 9.72
- TAAATTTTTTTTTTTTGTACACAAAAATATAATATT [XGTACX_site8151] — lower, 9.5
- TTATGTAGTATAATGAGTACTAAATATAGATATGTT [XGTACX_site6335] — lower, 9.7
- AATATTATAAATGATACACACTTAAAATACAGACAC [CACACA_site8868] — lower, 10.3
- AATTACTTAAATTATTGTACCCTAATGTTAATTTCA [XGTACX_site825] — lower, 9.59
- ATACATTCAAAATATACACACATATATCTATAATAT [CACACA_site6576] — lower, 9.98
- TTTCTTTAGTAGAATGTAAAAAATATAATCTTCTTA [TGCATGCA_negctrl_site298] — lower, 9.23
- TTTATAAAAAGCATAACACACACATGTCAATATATA [CACACA_site8286] — lower, 10.1
- TTCAATTATATTCTTTGTACGAATCTTCTATAAATT [XGTACX_site4346] — lower, 9.71
- GCTTATGCTCAATATTGTACTTTTTTTATTTATTCA [XGTACX_site8863] — lower, 9.81
- TACTTCTTTTTTATTTATTTTACTTTTTATTCTGTA [CACACA_negctrl_site772] — lower, 9.82
- ATTTAATTTTTTTTTAAACACACATTTTTTTATTTA [CACACA_site8880] — lower, 9.81
- ATATATATATATATATGTACATATACACATGTGTGC [XGTACX_site168] — lower, 10.1
- AAATAAATAATAAATAAATAAATAAAATACCAAATA [GTGCAC_negctrl_site620] — lower, 9.84
- TATAAATATGTGTATACACACCTGATAAAGGTATAT [CACACA_site7283] — lower, 10
- AAAATTATTAAATATGTACACACGTACATTTTATAA [CACACA_site8750] — lower, 9.5
- CACGCATACAGACACACACACACACCCATATATATA [CACACA_site636] — higher, 10.6
- TTAAAAATAAAACAAAGTACTCAAGTTATTGTCTTT [XGTACX_site1584] — lower, 9.53
- TATGATATGTATGGAAGTACGAAGAGGGATGATCAG [XGTACX_site1677] — lower, 9.66
- GTGAATCCTAAGTGTACACATCTTACAGATATATAT [CACACA_site4836] — lower, 9.85
- TGAAATAAAATTTGTACACACATATATATATATATA [CACACA_site586] — lower, 9.95
- ATTTTCAAATTAAAATGTACAAATGAAAGAAAGGGA [XGTACX_site7048] — lower, 9.75
- GCACAAATCATCAAATGTACAGAAAATGCTGTCAAT [XGTACX_site5037] — lower, 9.52
- TTCCTTCATTGGAAAAGTACACAATATTGTCGTTTA [XGTACX_site8057] — lower, 9.64
- ATATAGGTATAATACACACACTAATATGTAACTGTA [CACACA_site7011] — lower, 10.1
- CGTAAATTTTTCTAAGTGCATGTTAATTTTTCAATT — lower, 9.59
- TAAATACCTATATGGCGTACTATTATCATAGTATAT [XGTACX_site5423] — lower, 9.8
- TATTTATTATGATACTCATATTATTCTATGATTAAA [GTGCAC_negctrl_site486] — lower, 9.47
- ACATTCTATACATACACACCCACACCCAAAAAAAAA [CACACA_site863] — lower, 10
- TATATATCAATATACACACACACATATTTATTTATA [CACACA_site6858] — lower, 10.4
- AAAAATATAATATAATGTACACATAAACAAAAAAAA [XGTACX_site3658] — lower, 9.83
- TTTCTTAAATATATGCGTACTCAAAATTGTTCTACA [XGTACX_site7995] — lower, 9.26
- AACAGACATACATACACACATACATACAGACATACA [CACACA_site1942] — the same, 10.5
- TAAAATAAAACAAACACACACACACCGACACAAAAA [CACACA_site5993] — higher, 10.8
- ATATATATATATTTCGCACACATAATCTTATTAAAT [CACACA_site2579] — lower, 9.78
